Results taken from PubChem BioAssay (NCATS).
This list was built around the results that the source calls inconclusive (neither active nor inactive); the mix of calls is not that of the screen. For part of these data: No potency is given beside an inconclusive call; the fits are too rough. Calls of active or inactive are those of the source. Unless noted, calls follow the shape of the dose curve; as a rule, active = well fitted curve in the direction sought with a large enough effect; inconclusive = small, poorly fitted or top-dose-only effect, or another doubt; inactive = no such curve, though single readings can be large; an effect the other way counts as inactive or inconclusive.

Assays:
[1] = biological target: Cytochrome P450 2C9 (Homo sapiens) (UniProt P11712); assay: Cytochrome P450 family 2 subfamily C member 9 (CYP2C9) small molecule antagonists: luciferase biochemical (cell-free) qHTS assay (AID 1645842; active = well fitted curve in the direction sought with a large enough effect in the repeat runs; inconclusive = weak or mixed curves; inactive = no such curve, though single readings can be large; an effect the other way counts as inactive or inconclusive; also: potency is read from the fitted curve at half-maximal effect; nearly all actives have a fitted effect of over 55% in size)
Outline: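 P450-Glo CYP2C9 system: proluciferin substrate with enzyme in mix containing 0.4% BSA, 10 min at room temperature, then NADPH regeneration solution added and incubated 1 h at 37C. Detection reagent stopped reaction; luminescence read after 20 min as RLU.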

[2] = Primary qHTS for inhibitors of nuclear receptor binding SET domain protein 2 (NSD2) in an RCH-ACV wild type WT cells (2C) (AID 1645877); conditions: activity change, negative = cell killing: at 44.9 µM (top of the series) unless noted; also: nearly all actives have a fitted effect of over 70% in size; also: potency is read from the fitted curve at half-maximal effect; as to activity change, negative = cell killing: % is scaled to controls: 0 for no effect and ±100 for the full control effect
[3] = tested on: Nanoluciferase (engineered Oplophorus gracilirostris luciferase); assay: Primary Nanoluciferase (NLuc) qHTS assay for identification of artifact compounds. (AID 1845222); also: potency is read from the fitted curve at half-maximal effect
Outline: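 Compounds are pinned into diluted (1:55) conditioned medium of NLuc-expressing S16 cells and held 15 min at room temperature protected from light. Nano-Glo substrate follows, and luminescence is read 5 min later.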

[4] = tested on: HEK293; assay: Cytotoxic Profiling of Annotated Libraries Using Quantitative High-Throughput Screening (AID 1296008); conditions: Five cell lines viability, CellTiter-Glo ATP luminescence, 48-72 h; max response: hits give low values; also: nearly all actives have a fitted effect of over 60% in size; also: potency is read from the fitted curve at half-maximal effect; as to max response: % is scaled to controls: 0 for no effect and ±100 for the full control effect
Outline: (§1)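 Cytotoxicity was measured as CellTiter-Glo ATP luminescence, read after 10 min at room temperature. Compound treatment of the cells lasted 48 or 72 hr at 37 degrees Celsius in a qHTS format.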

[5] = tested on: HaCat; assay: as above; conditions: Five cell lines viability, CellTiter-Glo ATP luminescence, 48-72 h; max response: hits give low values
Outline: as §1

[6] = Primary fluorescence-based thiol-reactive (MSTI) qHTS assay for identification of artifact compounds. (AID 1845221); also: potency is read from the fitted curve at half-maximal effect;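 also: thiol-reactive compounds lower the probe fluorescence signal; nearly all actives have a fitted effect of over 65% in size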
Outline: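 A multi-concentration qHTS design tested compounds against 4 uM MSTI, pH 7.4 phosphate-buffered saline. Plates were protected from light for 1 h at room temperature before imaging fluorescence.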

[7] = biological target: Calcium and integrin-binding protein 1 (Homo sapiens) (UniProt Q99828); assay: Primary qHTS for Identification of Calcium Integrin Binding Protein 1 (CIB1) Competitor (AID 1508620);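 also: GST tagged CIB1 binding a fluorescein labelled alphaIIb integrin peptide tracer; top concentration of the series differs between compounds; % is scaled to controls: 0 for no effect and ±100 for the full control effect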
Outline: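 CIB1-GST (1 uM final) and compound incubated 15 min at room temperature before adding FITC-alphaIIb peptide tracer (100 nM final). Competition for binding read by fluorescence polarization (ex 480, em 540) after another 15 min at room temperature.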

[8] = Primary qHTS for inhibitors of nuclear receptor binding SET domain protein 2 (NSD2) in an isogenic RCH-ACV NSD2 p.E1099K mutant (9B) (AID 1645876); also: nearly all actives have a fitted effect of over 70% in size; also: potency is read from the fitted curve at half-maximal effect
[9] = biological target: Glutathione peroxidase 1 (Homo sapiens) (UniProt P07203); assay: Primary qHTS Assay for Inhibitors of Recombinant Selenoprotein Glutathione Peroxidase 1 (GPX1) (AID 1845191); conditions: activity, negative = inhibition: at 48.8 µM (top of the series); also: potency is read from the fitted curve at half-maximal effect; nearly all actives have a fitted effect of over 65% in size
Outline: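 NADPH consumption tracked by fluorescence at 340/450 nm between t=0 and t=15 min, room temperature. Final mix: 10 nM GPX1, 100 nM glutathione reductase, 1 mM GSH, 0.5 mM NADPH, 0.5 mM cumene hydroperoxide, 0.01% BSA; 30 min compound–enzyme preincubation.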

[10] = biological target: Phospholipid hydroperoxide glutathione peroxidase GPX4 (Homo sapiens) (UniProt P36969); assay: Primary qHTS Assay for Inhibitors of Recombinant Selenoprotein Glutathione Peroxidase 4 (GPX4) (AID 1845192); also: potency is read from the fitted curve at half-maximal effect; nearly all actives have a fitted effect of over 65% in size
Outline: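 NADPH consumption followed by fluorescence at 340/450 nm, t=0 and after 15 min at room temperature. Reaction started with cumene hydroperoxide (0.5 mM final) after 30 min compound–GPX4 preincubation; final 200 nM GPX4, 100 nM GR, 1 mM GSH, 0.5 mM NADPH.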
Tags tell the direction and shape of the fitted curve.

Sequence of UniProt P11712 (P11712 whole entry, looked up): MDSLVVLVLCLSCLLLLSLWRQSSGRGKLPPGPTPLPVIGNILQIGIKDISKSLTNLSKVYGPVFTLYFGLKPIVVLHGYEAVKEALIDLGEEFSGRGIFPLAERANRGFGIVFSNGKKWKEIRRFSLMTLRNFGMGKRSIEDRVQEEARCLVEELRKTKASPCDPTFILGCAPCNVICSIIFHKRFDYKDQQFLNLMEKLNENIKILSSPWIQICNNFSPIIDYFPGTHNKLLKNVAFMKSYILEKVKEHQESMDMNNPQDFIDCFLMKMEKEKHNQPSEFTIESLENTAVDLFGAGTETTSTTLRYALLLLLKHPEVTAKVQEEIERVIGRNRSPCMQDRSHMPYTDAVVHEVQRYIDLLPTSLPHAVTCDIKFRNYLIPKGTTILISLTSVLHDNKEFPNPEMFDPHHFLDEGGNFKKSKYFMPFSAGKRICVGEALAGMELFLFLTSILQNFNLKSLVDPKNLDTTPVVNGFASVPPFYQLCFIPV
Sequence of UniProt Q99828 (Q99828 whole entry, looked up): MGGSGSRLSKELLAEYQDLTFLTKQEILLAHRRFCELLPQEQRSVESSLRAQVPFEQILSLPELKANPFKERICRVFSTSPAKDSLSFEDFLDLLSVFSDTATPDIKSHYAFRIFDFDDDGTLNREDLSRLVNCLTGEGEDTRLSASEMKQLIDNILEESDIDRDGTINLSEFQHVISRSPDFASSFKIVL
Sequence of UniProt P07203 (P07203 whole entry, looked up): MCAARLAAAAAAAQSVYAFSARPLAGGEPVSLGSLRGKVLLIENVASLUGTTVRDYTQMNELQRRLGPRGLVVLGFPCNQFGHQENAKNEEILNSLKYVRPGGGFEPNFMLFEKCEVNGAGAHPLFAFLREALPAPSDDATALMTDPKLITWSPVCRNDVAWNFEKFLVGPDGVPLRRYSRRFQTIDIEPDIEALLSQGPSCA
Sequence of UniProt P36969 (P36969 whole entry, looked up): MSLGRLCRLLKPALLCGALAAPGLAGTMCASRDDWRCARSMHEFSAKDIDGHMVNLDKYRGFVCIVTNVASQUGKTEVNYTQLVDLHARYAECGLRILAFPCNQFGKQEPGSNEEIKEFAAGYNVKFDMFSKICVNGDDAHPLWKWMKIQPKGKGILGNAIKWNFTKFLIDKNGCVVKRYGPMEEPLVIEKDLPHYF

CC(C)(Cc1nc(-c2ccc(O)cn2)no1)C(=O)NC1=C(C(=O)O)CCCC1
Potency [1]: inconclusive [inhibitor, single point] | Potency [2]: inconclusive [inhibitor, partial curve, poor fit] | Potency [3]: inconclusive [inhibitor, partial curve] | Potency [4]: inconclusive [inhibitor, partial curve, poor fit]

O=C(O)CC(=O)OC[C@H]1O[C@@H](Oc2ccc3c(c2)OC[C@H]2c4cc5c(cc4O[C@@H]32)OCO5)[C@H](O)[C@@H](O)[C@@H]1O
Potency [5]: inconclusive [inhibitor, single point]

CC[C@H]1OC(=O)[C@H](C)C(=O)[C@H](C)[C@@H](OC2O[C@H](C)C[C@H](N(C)C)[C@H]2O)[C@@H](C)C[C@@H](C)C(=O)/C=C/[C@]1(C)O (some centres not stated)
Potency [2]: inactive | Potency [6]: inactive | max response [4]: inactive: -11.3%

COc1ccc(O[C@@H]2O[C@H](CO)[C@@H](O)[C@H](O)[C@H]2O)cc1OC
Potency [7]: inactive | Potency [8]: inactive | Potency [6]: inconclusive [inhibitor, single point] | max response [4]: inactive: 3.27%

COc1ccc([C@H]2Cc3cccc(O)c3C(=O)O2)cc1
Potency [2]: inactive | Potency [6]: inactive | outcome [4]: inactive

Cc1cc(F)ccc1-c1nc(NCCN=C(N)NC#N)nc2c1ccc(=O)n2-c1c(F)cccc1F
Potency [1]: inconclusive [inhibitor, single point] | Potency [8]: inconclusive [inhibitor, partial curve, poor fit] | Potency [2]: inconclusive [inhibitor, partial curve, poor fit] | Potency [9]: active: 20.2 µM | Potency [10]: active: 22.7 µM | Potency [4]: inconclusive [inhibitor, partial curve, poor fit]

CCC(C)c1ccc(NC(=O)Cn2cnc3c2c(=O)n(C)c(=O)n3C)cc1 (configuration not stated)
Potency [8]: inconclusive [inhibitor, single point] | Potency [2]: inconclusive [inhibitor, single point] | Potency [4]: inconclusive [inhibitor, single point]

CCC(CC)Nc1nc(C)c(-c2ccc(OC(F)(F)F)cc2OC)nc1OC
Potency [1]: inconclusive [inhibitor, single point] | Potency [6]: inconclusive [inhibitor, partial curve, poor fit] | Potency [4]: inconclusive [inhibitor, single point]
